In all, about 310,000 compounds went through this assay and about 2,200 (0.71%) showed an effect of 50% or more. Effects have a minus sign here. The list shows a part of the results.
Each compound was assayed against human ether-à-go-go-related gene (hERG) potassium channel (human, UniProt Q12809) (assay: primary screen, population patch clamp on CHO cells stably expressing hERG).
Sequence of human ether-à-go-go-related gene (hERG) potassium channel (Q12809 whole entry, looked up): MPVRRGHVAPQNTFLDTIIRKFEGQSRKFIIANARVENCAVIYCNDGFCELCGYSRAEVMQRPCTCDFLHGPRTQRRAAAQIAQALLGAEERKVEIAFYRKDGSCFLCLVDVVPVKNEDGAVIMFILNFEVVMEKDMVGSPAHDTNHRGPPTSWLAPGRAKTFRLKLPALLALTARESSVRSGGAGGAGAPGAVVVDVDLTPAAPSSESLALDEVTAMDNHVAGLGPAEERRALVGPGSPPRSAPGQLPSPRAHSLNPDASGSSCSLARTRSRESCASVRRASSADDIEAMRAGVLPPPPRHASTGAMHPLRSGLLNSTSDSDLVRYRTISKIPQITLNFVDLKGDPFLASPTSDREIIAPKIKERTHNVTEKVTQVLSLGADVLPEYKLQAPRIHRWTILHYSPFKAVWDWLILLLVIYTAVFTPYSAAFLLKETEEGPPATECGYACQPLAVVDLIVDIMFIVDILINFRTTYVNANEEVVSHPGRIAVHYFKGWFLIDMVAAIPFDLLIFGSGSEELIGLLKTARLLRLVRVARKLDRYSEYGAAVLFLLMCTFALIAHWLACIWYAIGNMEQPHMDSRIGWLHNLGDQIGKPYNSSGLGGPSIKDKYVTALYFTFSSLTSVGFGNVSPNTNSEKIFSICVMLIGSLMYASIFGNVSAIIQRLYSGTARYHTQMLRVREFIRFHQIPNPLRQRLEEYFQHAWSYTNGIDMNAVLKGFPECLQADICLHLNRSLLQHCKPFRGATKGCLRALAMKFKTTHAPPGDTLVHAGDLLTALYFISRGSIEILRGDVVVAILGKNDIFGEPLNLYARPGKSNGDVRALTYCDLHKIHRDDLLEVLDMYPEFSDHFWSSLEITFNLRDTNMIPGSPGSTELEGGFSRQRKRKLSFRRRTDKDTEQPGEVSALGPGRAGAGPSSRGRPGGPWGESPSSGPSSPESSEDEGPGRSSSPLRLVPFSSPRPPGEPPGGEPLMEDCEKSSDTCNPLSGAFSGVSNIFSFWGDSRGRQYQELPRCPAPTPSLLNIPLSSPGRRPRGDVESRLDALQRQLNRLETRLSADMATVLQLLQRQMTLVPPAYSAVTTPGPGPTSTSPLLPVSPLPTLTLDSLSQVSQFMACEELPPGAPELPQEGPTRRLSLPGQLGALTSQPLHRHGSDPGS

SMILES | hERG current change (%, negative = inhibition) at 1uM [%]
CC(=O)N(NC(N)=O)C(C)CC(=O)C1C(C)C=CCC1(C)C (stereo not shown) | 8.25
CCOc1ccc(CC(=NCCc2ccccc2)C2=C(O)CC(C)(C)CC2=O)cc1OCC | 6.42
COc1cc(NC(=O)CN2C(=O)c3ccccc3S2(=O)=O)cc(OC)c1 | 3.15
Nc1ccccc1SCC(=O)Nc1nccs1 | 18.3
COCCOC(=O)C1=C(C)NC(=O)NC1c1ccco1 (stereo not shown) | 1.1
O=C(CN1CCN(S(=O)(=O)c2ccccc2)CC1)Nc1ccnn1C1CCCC1 | -7.43
O=C(Nc1ccccc1C(=O)NCCN1CCOCC1)c1ccco1 | 4.54
Cc1ccc(/C=C2\CCCC3=C2NC(=S)NC3c2ccc(C)cc2)cc1 (stereo not shown) | 8.39
N#Cc1ccccc1OCC(=O)Nc1cccc(S(=O)(=O)N2CCCC2)c1 | 0.957
CCOC(=O)c1cnc2c(C(=O)OCC)cnn2c1N | 11.1
Cc1ccc(S(=O)(=O)NCCC(=O)NC2CCC(C)CC2)cc1 (stereo not shown) | 7.2
CCn1nc(NS(=O)(=O)c2ccc([N+](=O)[O-])cc2)c2cc3ccc(C)cc3nc21 | 10.5
O=[N+]([O-])c1c(NCCCO)cc(Sc2ccc(Cl)cc2)c2nonc12 | 11.5
COc1cc(OC)cc(C(=O)Nc2ccc(NC(=O)c3ccco3)c(Cl)c2)c1 | 11.6
Cc1ccc(C(=O)ONc2ccc(N=NC(=O)c3ccccc3O)cc2)cc1 | 10.6
O=C(NCc1cccs1)c1cc(-c2cccc(Cl)c2)on1 | 8.06
COc1cccc(C(=O)NCC2CCCN(C(=O)c3ccc(C=O)cc3)C2)c1OC (stereo not shown) | 15.2
COc1ccc(C(=O)Oc2cc(N)n(S(=O)(=O)c3ccc(C)cc3)n2)cc1 | 15.8
COc1cc(C(=O)Nc2ccc3c(c2)OCO3)ccc1-n1cnnn1 | -17.8

SMILES | hERG current change (%, negative = inhibition) at 1uM [%]
Cc1c(NC(=O)c2cccs2)cccc1C(=O)O | -7.28
Cc1coc2c1C(=O)C(=O)c1c-2ccc2c1CCCC2(C)C | 13.4
CCc1nnc(NC(=O)C2CCN(S(=O)(=O)c3ccc(C)cc3)CC2)s1 | 11.3
O=C(O)c1ccc(S(=O)(=O)NC2CC2)cc1 | 10.7
COc1ccc(CC(=O)NCc2nnc(SCCOc3ccccc3)n2C)cc1 | -0.497
COc1ccc(CC(=O)Oc2ccccc2C)cc1 | 13.6
COc1cccc(/C=C2\SC(=S)N(c3cccnc3)C2=O)c1OC | 8.38
COc1ccc(NC(=O)NC2(C(=O)N3CCN(C)CC3)CCCCC2)cc1 | 10.9
O=C(COC(=O)Cc1ccc(Br)cc1)Nc1ccc(N2CCOCC2)cc1 | 10
OCCCNc1ncnc2sc(-c3ccccc3)cc12 | 4.89
O=C(CSc1ccc2ccccc2c1)Nc1ncccn1 | 8.81
CN1CCCCCC1C(=O)N1CCC(N2CCC(C(=O)N3CCOCC3)CC2)CC1 (stereo not shown) | 2.86
Cc1cccc(OC2CCN(Cc3c(C(=O)N4CCCC4)nc4ccccn34)CC2)c1 | -20.2
CCN(CC)CCNC(=O)c1ccccn1.O=C([O-])/C=C\C(=O)[O-] | 9.35
Cc1ccccc1NC(=O)NCCc1nc2ccccc2[nH]1 | -3.49
COc1ccc(S(=O)(=O)N2CCOCC2)cc1NC(=O)COc1ccccc1 | -12.1
COc1ccc(CCCC(=O)N/N=C/c2ccccc2OC)cc1 | 10.9
O=C(Cc1ccc(Cl)c(Cl)c1)NCC1(N2CCOCC2)CCCCC1 | 5.37

Source: PMC4336329 (PLoS ONE, 2015)
